The numbers were not newly measured in patent US20240408074A1, “METHODS FOR THE TREATMENT AND PREVENTION OF NON-VIRAL TICK-BORNE DISEASES AND SYMPTOMS THEREOF OF” (60 DEGREES PHARMACEUTICALS LLC, priority 2023, published 2024), which cites them from elsewhere.

The structures appear in SMILES notation.

The series has as its system P. falciparum gametocytes. The note with it: Example 4; tafenoquine single dose 1.66 mg/kg combined with dihydroartemisinin/piperaquine, or dihydroartemisinin-piperaquine alone; cited from earlier work.

Turning to `COc1cc(C)c2c(Oc3cccc(C(F)(F)F)c3)c(OC)cc(NC(C)CCCN)c2n1` (stereo not shown) [tafenoquine, N(4)-[2,6-Dimethoxy-4-methyl-5-[3-(trifluoromethyl)phenoxy]quinolin-8-yl]pentane-1,4-diamine], the “time until gametocytes non-infectious to mosquitoes” value is given as “within seven days”.
